Laboratory results taken from PubChem BioAssay (NCI).
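Five concentrations, 48 hours, 96-well plates. GI50: concentration for 50% inhibition of growth. TGI denotes the concentration required for complete inhibition of growth.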

tested on: NCI-H322M lung; test: NCI tumour cell line growth inhibition, 48 h

Row | SMILES | GI50 [µM] | TGI [µM]
1 | Cn1cc(/C=N/Nc2ccnc3cc(Cl)ccc23)c2ccccc21 | 1.44 | 2.75
2 | CCN1CCN(Cc2ccc(C(=O)Nc3cccc(-c4cn(-c5ccc6oc(=O)ccc6c5)nn4)c3)cc2C(F)(F)F)CC1 | 16.9 | 30.8
3 | CCOc1ccccc1[C@H]1C(C(=O)c2ccc(Cl)cc2)C2(N[C@@H]1c1ccccc1)C(=O)Nc1ccc(Cl)cc12 (stereo partly specified) | > 18.8 | > 18.8
